The values that follow come from PubChem BioAssay AID1159614 (National Center for Advancing Translational Sciences (NCATS), 2016).

Structures are written as SMILES. In all, about 45,000 compounds went through this assay and about 65 (0.1%) were called active. The call rests on the fitted dose curve; in most records, active means well fitted activation curve with a large enough effect; inconclusive means small, poorly fitted or top-dose-only effect; inactive means no such curve, though single readings can be large or run the other way. The list shows a part of the results.

UniProt P54803, sequence (P54803 whole entry, looked up): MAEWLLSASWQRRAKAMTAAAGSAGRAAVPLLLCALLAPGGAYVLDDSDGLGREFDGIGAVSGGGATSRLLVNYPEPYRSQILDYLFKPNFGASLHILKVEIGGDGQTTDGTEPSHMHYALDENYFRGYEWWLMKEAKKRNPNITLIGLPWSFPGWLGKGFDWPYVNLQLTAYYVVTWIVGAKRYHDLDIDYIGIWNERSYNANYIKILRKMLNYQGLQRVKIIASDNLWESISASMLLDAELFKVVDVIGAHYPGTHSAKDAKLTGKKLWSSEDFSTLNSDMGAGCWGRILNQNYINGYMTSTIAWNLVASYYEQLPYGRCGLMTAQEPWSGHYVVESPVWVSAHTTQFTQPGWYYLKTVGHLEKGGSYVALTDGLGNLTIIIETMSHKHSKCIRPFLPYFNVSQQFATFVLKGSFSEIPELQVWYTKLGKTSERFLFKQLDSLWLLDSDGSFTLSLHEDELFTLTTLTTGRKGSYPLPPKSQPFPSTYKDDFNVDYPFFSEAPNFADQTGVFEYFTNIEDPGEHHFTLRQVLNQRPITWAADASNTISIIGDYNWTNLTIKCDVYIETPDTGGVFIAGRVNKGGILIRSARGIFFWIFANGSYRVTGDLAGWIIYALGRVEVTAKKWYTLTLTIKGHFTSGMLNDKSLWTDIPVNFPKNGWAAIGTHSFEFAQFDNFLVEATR

For this experiment, the target named is Galactocerebrosidase (Homo sapiens) (UniProt P54803). Description: A Novel Cell-Based Assay to Identify Small Molecules for B -Galactocerebrosidase. Further: 0% is about no effect; nearly all actives have a fitted effect of over 65% in size. The settings on record: 145M-Twi-hGALC-G270D cells, HMU-beta-Gal fluorescence, 48 h; series mostly up to 57.5 µM; activation: at the top concentration. Put shortly:
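qHTS, 1536-well; 145M-Twi-hGALC-G270D cells (WT line also made) in DMEM/F12 + 10% FBS; compound incubation on live cells; HMU-β-gal 0.1 mM final, pH 5.2, NaTC; carbonate stop; fluorescence increase = enhanced residual activity.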
Regarding `Cc1cc2c(n1-c1ccc(C(=O)NCCc3ccc(Cl)cc3)cc1)CCCC2`, the “activation” value is inactive: -18.8%.

Turning to `Cc1nc(N2CCCC2)c2c(C(=O)N3CCN(c4ccccc4)CC3)c(C)oc2n1`, the “activation” value was inactive: 3.33%. As to `CC(C)C(=O)Nc1nnc2n1CCS2`, the “activation” value is inactive: 2.49%. For `CCC(Cn1nnc2ccccc2c1=O)NC(=O)Nc1cc(C)cc(C)c1` (stereo not given), the “activation” value is inactive: -11.7%. With `CCOc1ccc(CNC(=O)c2cccc(NC(=O)N3CCSc4ncccc43)c2)cc1OC`, the “activation” value was inactive: -1.07%.

For `CCc1ccc(C(=O)c2cn(CC(=O)Nc3ccc(Cl)cc3)c3cc4c(cc3c2=O)OCO4)cc1`, the “activation” value is inactive: -6.47%. Regarding `CC(=O)N1CCCc2cc(S(=O)(=O)N3CCCC(C(=O)N4CCN(c5cccc(Cl)c5)CC4)C3)ccc21` (stereo not given), the “activation” value is inactive: 12.6%.

As to `CCOc1cc2sc(N3CCC(C(=O)Nc4ccc(CC)cc4)CC3)nc2cc1Br`, the “activation” value was inactive: -11.3%. `COc1ccc(C2C(C(=O)Nc3ccccc3)=C(C)Nc3c(C(=O)Nc4ccccc4)cnn32)cc1` (stereo not given): the “activation” value is inactive: 17.1%.

As to `COc1ccc(C)cc1NC(=O)c1noc2c1CSc1ccccc1-2`, the “activation” value is inactive: -2.91%.

As to `Cc1ccc(NC(=O)C2(c3cccs3)CCOCC2)cc1Cl`, the “activation” value is inactive: -20%. The same measure for `COc1ccc(Br)cc1C1C(C(=O)Nc2ccc(C)cc2C)=C(C)Nc2ncnn21` (stereo not given): inactive: -10.7%; for `COCCCNc1nc(NCc2ccccc2OC)c2cnn(C)c2n1`: inactive: 3.18%; for `Cc1ccc(C)c(N2CCN(C(=O)c3cn(CC(C)C)c(=O)c4c3c3ccccc3n4C)CC2)c1`: inactive: -20%. Consider `Cc1ccc(C)c(CSc2nc(-c3ccccc3F)nc3c2Cc2c(CO)cnc(C)c2O3)c1`, for which the “activation” value was inactive: -14.6%. Consider `COCCNC(=O)CCC(=O)NNc1nc2ccccc2c2nc(C)nn12`, for which the “activation” value was inactive: -3.49%.

Regarding `CCOc1ccccc1NC(=O)c1c(NC(=O)COc2ccc(Cl)cc2)sc2c1CCCCC2`, the “activation” value was inactive: -1.41%. Turning to `CS(=O)(=O)N1CCc2cc(C(=O)N3CCN(c4cccc(Cl)c4)CC3)ccc21`, the “activation” value was inactive: -4.94%. As to `Cc1ccc2c(CNCCc3ccccc3)c(C(=O)O)n(Cc3ccccc3C)c2c1`, the “activation” value is inactive: 8.03%.

Take `O=C(NCCc1ccccc1)c1nn(-c2ccccc2F)nc1CO`: the “activation” value was inactive: -14.9%. Turning to `COc1ccc(NC(=O)Cn2c(=O)n(-c3cc(C)cc(C)c3)c(=O)c3oc4ccccc4c32)cc1OC`, the “activation” value is inactive: -9.41%. As for `COc1cccc(NC(=O)Cn2nnc(C(=O)NCc3cccs3)c2N)c1`, the “activation” value is inactive: -10.1%. Turning to `CCOc1ccccc1-c1noc(CSc2nnc(-c3ccccc3)n2-c2cccc(C)c2)n1`, the “activation” value was inactive: -17.3%. The same measure for `CCOC(=O)c1c(Nc2cccc(C(=O)OC)c2)nnc(-c2ccccc2)c1-c1ccccc1`: inactive: -22.6%; for `COc1ccc(OC)c(C2c3c(-c4ccc(Br)cc4)n[nH]c3C(=O)N2c2ccc(Cl)cc2)c1` (stereo not given): inactive: 5.4%; for `CCOc1ccc(NC(=O)c2ccc3c(SCC(=O)O)c4c(nc3c2)CCC4)cc1`: inactive: -17%. `CN1CCCN(C(c2ccccc2)c2ccc(Cl)cc2)CC1` (stereo not given): the “activation” value was inactive: -8.68%. For the molecule `CCOC(=O)[C@H](CCc1ccccc1)N[C@@H](C)C(=O)N1C(=O)N(C)C[C@H]1C(=O)O`, the “activation” value is inactive: -12.1%.

On to `C[C@@H]1C[C@H]2[C@@H]3CCC4=CC(=O)C=C[C@]4(C)[C@@]3(Cl)[C@@H](O)C[C@]2(C)[C@@]1(OC(=O)c1ccco1)C(=O)CCl`, for which the “activation” value is inactive: -9.14%. As to `CCOC(=O)c1cnc2c(cnn2CC)c1NN=C(C)C`, the “activation” value is inactive: -14.7%. Consider `COc1ccccc1NC(=O)N1CCN(c2nnc(C)c3c(C)n(-c4ccc(Cl)cc4)nc23)CC1`, for which the “activation” value is inactive: -17.1%. The same measure for `O=C(Nc1cccc(C(F)(F)F)c1)N1CCC(CN2CCCCCC2)CC1`: inactive: -6.59%; for `COc1cc(-c2nc3ccccn3c2Nc2ccccc2C)ccc1O`: inactive: -29%. With `CCOc1ccccc1NC(=O)COC(=O)c1cn(CC)c2nc(C)ccc2c1=O`, the “activation” value was inactive: -4.91%. On to `COc1ccccc1C(=O)Nc1ccc(NC(=O)c2cccs2)cc1`, for which the “activation” value was inactive: -13.5%. For `COc1ccc(Nc2cc(C(=O)NCCCN(C)Cc3ccccc3)c3ccccc3n2)c(OC)c1`, the “activation” value is inactive: -29.3%. The same measure for `CCOc1ccc(S(=O)(=O)NCC(c2ccco2)S(=O)(=O)c2ccc(C)cc2)cc1` (stereo not given): inactive: -9.77%; for `COc1ccccc1CNS(=O)(=O)c1ccc(-c2cc(C(F)(F)F)on2)s1`: inactive: -14%. With `CC1CCN(c2cc3c(cc2F)c(=O)c(S(=O)(=O)c2cccc(Cl)c2)cn3Cc2ccccc2)CC1`, the “activation” value is inactive: -18.9%. As to `CC1CCc2c(sc(NC(=O)Cn3nnc(-c4ccc(C(F)(F)F)cc4)n3)c2C#N)C1` (stereo not given), the “activation” value is inactive: -18.9%. For `COc1ccc(CC(=O)NCCc2sc(-c3ccc(Cl)cc3)nc2C)cc1OC`, the “activation” value was inactive: -3.17%. As to `COc1ccc(NC(=O)C(=O)NCCc2sc(-c3ccc(Cl)cc3)nc2C)cc1`, the “activation” value was inactive: -8.34%. For `COc1ccc(C2=C(C(C)=O)Sc3nnc(-c4ccc(C)cc4)n3N2C(C)=O)cc1OC`, the “activation” value was inactive: -5.94%. Take `Cn1nc(-c2ccccc2F)c2cc(C(=O)NCc3ccc(Cl)cc3)sc21`: the “activation” value is inactive: -37.6%. Consider `CCc1ccc(NC(=O)CSc2nc3n[nH]c(C)c3c(=N)n2-c2ccc(C)cc2)cc1`, for which the “activation” value is inactive: 0.645%. The same measure for `COc1cc(Cl)c(C)cc1NC(=O)Cn1cc(S(=O)(=O)N2CCN(c3ccccc3F)CC2)c2ccccc2c1=O`: inactive: -8.1%; for `Cc1cccc(CCNC(=O)C2CCC(CNS(=O)(=O)c3c(C)cc(C)cc3C)CC2)c1` (stereo not given): inactive: -12.4%. The same measure for `O=C(Cc1ccc(NC(=O)N2CCCCc3ccccc32)cc1)NCc1ccccc1Br`: inactive: -10%. For the molecule `COc1ccc(OC)c(NC(=O)CCNS(=O)(=O)c2cccc3nsnc23)c1`, the “activation” value is inactive: -2.14%.

Turning to `O=C(NCc1ccc(F)cc1)c1c2c(nc3ccccc13)C(=O)N(C1CCCCC1)C2`, the “activation” value is inactive: -11%.

In the case of `COc1ccccc1CNc1ccc(-c2nc(-c3ccccn3)no2)cc1[N+](=O)[O-]`, the “activation” value is inactive: -4.38%. The same measure for `CCOc1ccc2nc(S(N)(=O)=O)sc2c1`: inactive: -0.972%; for `N[C@H](C(=O)O)c1ccc(O)cc1`: inactive: -10.7% [at 23.8 µM]; for `Cc1ccc(NC(=O)CN(C)S(=O)(=O)c2ccc3c(c2)n(C)c(=O)c(=O)n3C)c(C)c1`: inactive: -8.15%. Consider `N#Cc1ccc(OC(=O)c2cc(-c3ccc(Cl)cc3)on2)cc1`, for which the “activation” value was inactive: 1.12%. As for `Cc1cccc(NS(=O)(=O)c2ccc3[nH]c(=O)[nH]c3c2)c1C`, the “activation” value is inactive: -22.2%.

Regarding `O=C(CCC1N=C2c3ccccc3N=C(SCC(=O)Nc3ccccc3F)N2C1=O)NCc1ccco1` (stereo not given), the “activation” value is inactive: -11.3%. For the molecule `CCOc1ccc(-c2c(C)nn3c(C)c(C(=O)NCc4cccc(OC)c4)cnc23)cc1OCC`, the “activation” value was inactive: -12.7%. `CCc1ccc(CN2C(=O)c3ccccc3C2C(=O)NC2CCCCCC2)cc1` (stereo not given): the “activation” value was inactive: -9.75%. Regarding `CC(C)(C)C(=O)Nc1ccc(-c2nc3ccccc3s2)cc1`, the “activation” value is inactive: -17.5%. Take `Cc1nn(C(=O)COc2ccc(Cl)cc2)c(C)c1Sc1ccccc1`: the “activation” value was inactive: -18.7%. As to `CCOC(=O)c1ccc(NC(=O)CC2C(=O)N(c3ccccc3)C(=O)N2Cc2ccc(C)cc2)cc1` (stereo not given), the “activation” value is inactive: -9.29%.

Turning to `CCOC(=O)c1c(NC(=O)c2ccc(S(=O)(=O)N3CCC(C)CC3)cc2)sc2c1CCN(C(C)C)C2`, the “activation” value is inactive: -27.8%. In the case of `COc1ccc(CCNC(=O)CCCn2c(=O)c3ccccc3n(CC(=O)Nc3cccc(C)c3)c2=O)cc1OC`, the “activation” value is inactive: 5.82%. Consider `COc1ccc(C(=O)Nc2cnc3ccccn3c2=O)cc1`, for which the “activation” value was inactive: -15.7%. Turning to `Cc1oc(-c2ccccc2)nc1Cn1c(SCc2cccc(C(F)(F)F)c2)nc2cccnc21`, the “activation” value is inactive: 1.37%. As for `CC(=O)Nc1ccc(S(=O)(=O)NCc2ccc3c(c2)CCN3C(C)=O)cc1`, the “activation” value was inactive: -13.4%. The same measure for `CCc1ccccc1Nc1nn2c(=O)c3ccc(C(=O)NC4CCC(C)CC4)cc3nc2s1` (stereo not given): inactive: -25.7%. Take `CCOc1cc(C(=O)N(Cc2nc(-c3ccc(C)cc3)no2)C(C)C)cc(OCC)c1OCC`: the “activation” value is inactive: -34%. For `COc1ccc(-n2ncc(C(=O)N3CCN(Cc4ccccc4)CC3)c2C2CCN(C(=O)OC(C)(C)C)CC2)cc1`, the “activation” value is inactive: 7.1%.

Turning to `CCc1cnc2c(c1SCc1c(F)cccc1Cl)c(=O)n(C)c(=O)n2C`, the “activation” value is inactive: -11.4%. `CN(C(=O)CSc1nc2ccccc2n1CC(=O)N(C)C1CCCCC1)c1ccccc1`: the “activation” value is inactive: -19%. `Cc1ccc2c(CNC3CCCC3)c(C(=O)O)n(Cc3ccc(F)cc3)c2c1`: the “activation” value is inactive: -20.6%.

Turning to `CCCCNC(=O)CCn1c(=O)c2ccccc2n(Cc2cccc(Cl)c2)c1=O`, the “activation” value is inactive: -1.36%.

Turning to `COc1cccc(NC(=O)Nc2ccc3nc(N4CCN(C)CC4)cc(C)c3c2)c1`, the “activation” value is inactive: -8.12%. As to `Cc1noc(/C=C/c2ccccc2F)c1S(=O)(=O)N1CCC(C(=O)Nc2ccc(C#N)cc2)CC1`, the “activation” value was inactive: 1.34%.

For `CCOC(=O)C1CCCN(C(=O)c2ccc3c(c2)N(Cc2ccc(Cl)cc2)C(=O)c2ccccc2S3=O)C1` (stereo not given), the “activation” value was inactive: -13.5%. As for `Cc1ccc(C)c(NC(=O)c2cc(S(=O)(=O)NCCc3ccccc3)ccc2F)c1`, the “activation” value is inactive: -13.8%.

As to `COc1ccc(NC(=O)C2CCN(S(=O)(=O)c3cc(-c4noc(C)n4)ccc3C)CC2)cc1`, the “activation” value was inactive: -11.7%.

As for `Cc1cccc(NC(=O)CN2C(=O)CCn3nc(-c4cccn4C)cc32)c1C`, the “activation” value is inactive: -9.39%. The same measure for `O=C(Nc1cccc(C(F)(F)F)c1)Nc1cccs1`: inactive: -9.56%; for `O=C(CSc1nnc2scc(-c3ccccc3)n12)Nc1ccc(Cl)cc1`: inactive: -8.62%.

In the case of `CCOC(=O)c1ccc(NC(=O)c2ccc(CN3C(=O)CCn4nc(C)cc43)cc2)cc1`, the “activation” value was inactive: -7.35%. The same measure for `CCOc1ccc(CNC(=O)CCn2c(=O)c3cccn3c3ccc(F)cc32)cc1`: inactive: -1%; for `CCCCN(CC)C(=O)C1CCCN(c2ncnc3c2nc2n3CCCCC2)C1` (stereo not given): inactive: -17.1%. For the molecule `O=C(CSc1nc2ccsc2c(=O)n1-c1ccc(Br)cc1)NCc1ccccc1`, the “activation” value is inactive: -22.7%. Regarding `Cc1ccccc1Cn1cnc2nc3c(cc2c1=O)CC(C)CC3` (stereo not given), the “activation” value was inactive: -10.1%. Consider `Cc1cc(N2CCCCC2)nc2ccc(NC(=O)/C=C/c3ccc(OCCC(C)C)cc3)cc12`, for which the “activation” value was inactive: -27.3%. Turning to `CCc1cccc(C)c1NC(=O)CCCn1nc(C)c2sc3ccccc3c2c1=O`, the “activation” value was inactive: -9.47%.

Consider `O=C(Cn1c(=O)c2ccccc2n2nncc12)Nc1cccc(F)c1`, for which the “activation” value is inactive: -15.6%. The same measure for `O=C(NCc1nc2ccccc2[nH]1)c1cccc(Cl)c1`: inactive: 0.0069%; for `COc1ccc(NC(=O)NCCn2nnc3cc(S(=O)(=O)N(C)C)ccc32)cc1`: inactive: -10.5%.

`CCOC(=O)c1c(C)[nH]c(C)c1S(=O)(=O)N(C)CC(=O)NCc1cccc(Br)c1`: the “activation” value is inactive: 7.31%.

In the case of `CCc1cccc(C)c1NC(=O)CCCN1C(=O)C(c2ccccc2)Oc2cccnc21` (stereo not given), the “activation” value was inactive: -18.5%. With `CC1CCN(c2ccc(-c3nc(-c4ccccc4)no3)cc2[N+](=O)[O-])CC1`, the “activation” value is inactive: -13.8%.
